# Test results from publication PMC4336329 (PLoS ONE, 2015).
# About 14,000 (4.5%) of roughly 310,000 compounds showed an effect of 50% or more. Effects have a minus sign here. The list shows a part of the results.
# Biological target: human ether-à-go-go-related gene (hERG) potassium channel (human, UniProt Q12809)
# Experiment: primary screen, population patch clamp on CHO cells stably expressing hERG
# 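Also: peak tail current of the secondary pulse compared with the same well before compound.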
# human ether-à-go-go-related gene (hERG) potassium channel, sequence (Q12809 whole entry, looked up): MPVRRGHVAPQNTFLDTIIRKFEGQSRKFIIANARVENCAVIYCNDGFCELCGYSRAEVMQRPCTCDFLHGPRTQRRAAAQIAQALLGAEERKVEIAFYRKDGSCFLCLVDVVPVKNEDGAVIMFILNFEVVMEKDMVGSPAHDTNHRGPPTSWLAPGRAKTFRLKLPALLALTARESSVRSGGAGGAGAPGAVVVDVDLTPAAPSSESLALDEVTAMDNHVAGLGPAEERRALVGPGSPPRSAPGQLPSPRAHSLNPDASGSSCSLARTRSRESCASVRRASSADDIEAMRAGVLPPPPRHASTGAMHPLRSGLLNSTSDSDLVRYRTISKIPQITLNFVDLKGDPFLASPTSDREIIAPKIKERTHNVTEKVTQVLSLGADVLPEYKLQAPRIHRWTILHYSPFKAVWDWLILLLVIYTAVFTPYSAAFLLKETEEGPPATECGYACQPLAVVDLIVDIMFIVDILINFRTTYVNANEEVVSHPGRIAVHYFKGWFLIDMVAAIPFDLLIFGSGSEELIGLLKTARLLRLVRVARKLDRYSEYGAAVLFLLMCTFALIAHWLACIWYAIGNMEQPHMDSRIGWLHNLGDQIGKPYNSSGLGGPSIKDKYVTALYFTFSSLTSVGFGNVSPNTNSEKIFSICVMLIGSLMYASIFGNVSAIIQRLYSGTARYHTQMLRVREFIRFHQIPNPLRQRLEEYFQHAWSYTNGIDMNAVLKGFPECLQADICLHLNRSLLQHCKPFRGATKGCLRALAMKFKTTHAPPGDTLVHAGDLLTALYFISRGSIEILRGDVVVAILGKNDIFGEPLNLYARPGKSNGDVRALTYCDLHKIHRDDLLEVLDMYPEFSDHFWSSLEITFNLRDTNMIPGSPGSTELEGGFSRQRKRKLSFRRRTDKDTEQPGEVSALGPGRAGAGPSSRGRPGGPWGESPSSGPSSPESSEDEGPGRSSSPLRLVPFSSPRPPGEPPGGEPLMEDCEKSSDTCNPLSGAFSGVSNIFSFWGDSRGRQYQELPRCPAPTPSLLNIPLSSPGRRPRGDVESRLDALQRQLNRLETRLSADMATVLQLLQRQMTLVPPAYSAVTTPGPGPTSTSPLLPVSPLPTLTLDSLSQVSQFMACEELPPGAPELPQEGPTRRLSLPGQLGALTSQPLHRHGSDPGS
row,Structure (SMILES),"hERG current change (%, negative = inhibition) at 10uM [%]"
1,COc1c(/C=N/NS(=O)(=O)c2ccc(C)cc2)c(CCN(C)C(C)=O)cc2c1OCO2,8.62
2,Cc1cccc(-c2nnc(SCC(=O)C(C)(C)C)n2C)c1,-10
3,O=C(Nc1cccc(Cl)c1)c1nc[nH]c1C(=O)N1CCN(c2ccccc2)CC1,8.06
4,Cc1ccccc1NC(=O)Cc1nc(COC(=O)CCC(=O)c2ccccc2)cs1,-39.7
5,CCOP(=O)(c1ccc(N(C)C)cc1)C(O)c1cc(OC)c(OC)c(OC)c1 (centres unmarked),4.4
6,O=C(C[C@H]1C(=O)N(Cc2ccccc2)C[C@@H]1Cc1ccccc1)Nc1ccccc1,-4.41
7,CCOC(=O)C1CCN(C(=O)c2cccc(S(=O)(=O)N(C)C3CCCCC3)c2)CC1,-30.5
8,CCc1nn(C(C)C(=O)NCc2cccc(Cl)c2)c(=O)c2cc3occc3n12 (centres unmarked),2.8
9,COc1cc(OC)c(C(=O)CCC(=O)O)cc1OC,-2.19
10,CC(=O)NCCNS(=O)(=O)c1ccc(C)c([N+](=O)[O-])c1,12.6
11,CCCn1cnc2c(c1=O)c1nc3ccccc3nc1n2CCc1ccccc1,5.16
12,CCCCn1c(N)c(N(CCOC)C(=O)c2cc(=O)[nH]c3ccccc23)c(=O)[nH]c1=O,12.5
13,Cl.O=C(c1ccco1)N1CCN(C(c2ccc(F)cc2)c2nnnn2Cc2cccs2)CC1 (centres unmarked),-57
14,Cc1ncc(CO)c(/C=N/NC(=O)c2ccc(Br)cc2)c1O,-1.67
15,Cc1cc(C)c(C(=O)OCC(=O)NCc2cccs2)c(C)c1,-3.84
16,CN1C2CCC1CC(OC(c1ccccc1)c1ccccc1N)C2 (centres unmarked),-68.5
17,O=C(COc1ccccc1Cl)c1ccc2c(c1)CCCC2,-0.256
18,O=C(N/N=C\c1cc(Br)ccc1O)c1ccc(S(=O)(=O)N2CCCCC2)cc1,6.47
19,CCCCN(CC)CCNC(=O)c1ccc2c(Cl)c3c(nc2c1)CCC3,-30

row,Structure (SMILES),"hERG current change (%, negative = inhibition) at 10uM [%]"
1,O=C(NCCN1CCOCC1)c1cc(Cl)ccc1[N+](=O)[O-],9.91
2,O=C1CC(/C=C/c2ccccc2)=Nc2ccccc2N1,24.1
3,COc1ccc(NC(=O)c2cn3c(nc4ccccc43)c(C#N)c2C)cc1,3.29
4,CC1Cc2ccccc2N1CC(=O)NC(=O)NC1CCCC1 (centres unmarked),-13.5
5,COc1ccc(CC(=O)Nc2cccc(-c3csc(C)n3)c2)cc1,16.6
6,COc1cccc(NC(=O)Cn2c(CCC(=O)O)ccc2-c2cccs2)c1,12.4
7,O=S(=O)(c1ccccc1)N1CCNCC1,0.901
8,CC1(C)NC(=O)N(CCOc2cccc(Cl)c2Cl)C1=O,-2.28
9,CC(=O)O[C@H]1C[C@@H]2CC[C@@H]3[C@H](CC[C@@]4(C)[C@H]3C[C@H]([N+]3(C)CCCCC3)[C@@H]4OC(C)=O)[C@@]2(C)C[C@@H]1N1CCCCC1.[Br-],22.5
10,O=C(C[N+]12CCN(CC1)CC2)NCCc1ccc(Cl)cc1Cl.[Cl-],30.8
11,COCCCNC(=O)C(=O)Nc1ccc2c(c1)N(S(=O)(=O)c1cccs1)CCC2,-3.08
12,CC(C)(C)NC(=O)CN(C(=O)CNS(=O)(=O)c1ccc(Cl)cc1)c1ccc2c(c1)OCCO2,-19.9
13,O=C(Nc1ccccc1)c1ccc(F)cc1F,2.86
14,O=C1CC(=O)N(Cc2ccco2)C(=O)N1,4.05
15,CCOC(=O)c1[nH]c2ccc(OC)cc2c1NC(=O)c1cccc(OC)c1,-9.15
16,CC(=O)NS(=O)(=O)c1ccc(NC(=O)c2cc(-c3ccc(C)cc3)nc3ccccc23)cc1,-2.67
17,C(=N\Nc1nc2ccccc2[nH]1)/c1ccc2ncccc2c1,6.85
18,CCn1cc(CNC(=O)c2ccc(C)s2)cn1,21.6
19,Cc1nn(-c2ccccc2)c(Cl)c1C(=O)Nc1ccccc1,-5.14

row,Structure (SMILES),"hERG current change (%, negative = inhibition) at 10uM [%]"
1,c1ccc(-n2nnnc2-n2nnc3ccccc32)cc1,7.46
2,CC(=O)c1sc2nsc(SCCN3CCCC3)c2c1N,-0.32
3,O=C(CNS(=O)(=O)c1cccs1)Nc1ccc2c(c1)OCCO2,10.8
4,COCC(=O)N(Cc1cc2ccc(C)cc2[nH]c1=O)c1cccc(C)c1,-8.87
5,C/C(=N\NC(=O)c1ccccc1)c1ccc(NC(=O)c2cccs2)cc1,-14.2
6,CN(C)S(=O)(=O)c1ccc(C(=O)OCC(=O)c2ccc3c(c2)NC(=O)CO3)cc1,11.4
7,CN(C)S(=O)(=O)c1cccc(-c2nnc(SCc3ccc4c(c3)OCCO4)o2)c1,-5.21
8,CN(C)CCC(=O)c1ccc(F)cc1.Cl,-7.33
9,Cc1ccc(-n2c(SCC(=O)OC(C)C)nnc2-c2ccco2)cc1,-37.7
10,COc1ccc(S(=O)(=O)N2CCC3(CC2)CC(=O)c2ccccc2O3)cc1,-24.8
11,COc1ccc(Oc2ncnc3c2ncn3Cc2ccccc2)cc1,-11.9
12,CC(C)(C)Cc1nnc(NC(=O)c2ccc3c(c2)OCO3)s1,27
13,Clc1ncccc1-c1nc2ccccc2n1Cc1ccccc1,-33.5
14,COC(=O)C(O)(c1ccc(N=Cc2ccccc2O)c(C)c1)C(F)(F)F (centres unmarked),9.51
15,O=C(O)c1cccc(Nc2nc(-c3cc4ccccc4oc3=O)cs2)c1,20.9
16,CCn1c(=NC(=O)C2COc3ccccc3O2)sc2c(C)ccc(OC)c21 (centres unmarked),9.04
17,CCOC(=O)C1CCN(C(C(=O)NC2CCCC2)c2ccc(C)cc2)CC1 (centres unmarked),-21.8
18,CCc1ccccc1N(C(=O)c1cccs1)C1C=CS(=O)(=O)C1 (centres unmarked),-35.7
